Experimental data: the supplement of paper PMC8728848
The other results are listed elsewhere or left out.

Assays:
Assay in all cases: glycan array binding signal (z-score within array); higher = stronger binding
Settings in all cases: glycan notation: IUPAC condensed, linker removed
[1] = target: GlcNAc(b1-3)Gal(b1-4)GlcNAc(b1-3)Gal(b1-4)GlcNAc(b1-3)Gal(b1-4)GlcNAc(b1-3)Gal(b1-4)GlcNAc(b1-2)[GlcNAc(b1-3)Gal(b1-4)GlcNAc(b1-3)Gal(b1-4)GlcNAc(b1-3)Gal(b1-4)GlcNAc(b1-3)Gal(b1-4)GlcNAc(b1-6)]Man(a1-6)[GlcNAc(b1-3)Gal(b1-4)GlcNAc(b1-3)Gal(b1-4)GlcNAc(b1-3)Gal(b1-4)GlcNAc(b1-3)Gal(b1-4)GlcNAc(b1-2)Man(a1-3)]Man(b1-4)GlcNAc(b1-4)[Fuc(a1-6)]GlcNAc
Procedure, shortened: (§1)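 Arrays were curated from the Consortium for Functional Glycomics database, 3228 in total, and kept only where the protein sequence was available. Binding is expressed as a within-array Z-score. This score was averaged across arrays of the same protein sequence at different concentrations or buffers and across linkers, and negative values can be read as non-binding.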

[2] = target: GlcNAc(b1-3)Gal(b1-4)GlcNAc(b1-3)Gal(b1-4)GlcNAc(b1-3)GalNAc
Procedure, shortened: as §1

[3] = target: GlcNAc(b1-3)Gal(b1-4)GlcNAc(b1-3)GalNAc
Procedure, shortened: as §1

[4] = target: GlcNAc(b1-3)Gal(b1-4)GlcNAc(b1-3)[GlcNAc(b1-3)Gal(b1-4)GlcNAc(b1-3)]GalNAc
Procedure, shortened: as §1

[5] = target: GlcNAc(b1-3)Gal(b1-4)GlcNAc(b1-6)[Gal(b1-3)]GalNAc
Procedure, shortened: as §1

[6] = target: GlcNAc(b1-3)Gal(b1-4)GlcNAc(b1-6)[GlcNAc(b1-3)Gal(b1-3)]GalNAc
Procedure, shortened: as §1

[7] = target: GlcNAc(b1-3)Gal(b1-4)GlcNAc(b1-6)[GlcNAc(b1-3)]Gal(b1-4)GlcNAc
Procedure, shortened: as §1

GlcNAc(b1-3)GalNAc = target: GlcNAc(b1-3)GalNAc
Procedure, shortened: as §1

GlcNAc(b1-3)Man = target: GlcNAc(b1-3)Man
Procedure, shortened: as §1

[8] = target: GlcNAc(b1-3)[GlcNAc(b1-4)][GlcNAc(b1-6)]GlcNAc
Procedure, shortened: as §1

[9] = target: GlcNAc(b1-3)[GlcNAc(b1-6)]Gal(b1-4)GlcNAc
Procedure, shortened: as §1

[10] = target: GlcNAc(b1-3)[GlcNAc(b1-6)]GalNAc
Procedure, shortened: as §1

[11] = target: GlcNAc(b1-4)Gal(b1-4)GlcNAc
Procedure, shortened: as §1

GlcNAc(b1-4)GlcNAc = target: GlcNAc(b1-4)GlcNAc
Procedure, shortened: as §1

[12] = target: GlcNAc(b1-4)GlcNAc(b1-4)GlcNAc
Procedure, shortened: as §1

[13] = target: GlcNAc(b1-4)GlcNAc(b1-4)GlcNAc(b1-4)GlcNAc(b1-4)GlcNAc
Procedure, shortened: as §1

[14] = target: GlcNAc(b1-4)GlcNAc(b1-4)GlcNAc(b1-4)GlcNAc(b1-4)GlcNAc(b1-4)GlcNAc
Procedure, shortened: as §1

[15] = target: GlcNAc(b1-4)[GlcNAc(b1-6)]GalNAc
Procedure, shortened: as §1

[16] = target: GlcNAc(b1-6)Gal(b1-4)GlcNAc
Procedure, shortened: as §1

GlcNAc(b1-6)GalNAc = target: GlcNAc(b1-6)GalNAc
Procedure, shortened: as §1

[17] = target: GlcNAc6S(b1-3)Gal(b1-4)GlcNAc
Procedure, shortened: as §1

Kdn(a2-3)Gal(b1-3)GalNAc = target: Kdn(a2-3)Gal(b1-3)GalNAc
Procedure, shortened: as §1

Kdn(a2-3)Gal(b1-3)GlcNAc = target: Kdn(a2-3)Gal(b1-3)GlcNAc
Procedure, shortened: as §1

Kdn(a2-3)Gal(b1-4)Glc = target: Kdn(a2-3)Gal(b1-4)Glc
Procedure, shortened: as §1

Kdn(a2-3)Gal(b1-4)GlcNAc = target: Kdn(a2-3)Gal(b1-4)GlcNAc
Procedure, shortened: as §1

[18] = target: Kdn(a2-3)Gal(b1-4)[Fuc(a1-3)]GlcNAc
Procedure, shortened: as §1

Kdn(a2-6)Gal(b1-4)GlcNAc = target: Kdn(a2-6)Gal(b1-4)GlcNAc
Procedure, shortened: as §1

[19] = target: Man(a1-2)Man(a1-2)Man(a1-3)Man
Procedure, shortened: as §1

[20] = target: Man(a1-2)Man(a1-2)Man(a1-6)[Man(a1-3)]Man
Procedure, shortened: as §1

Man(a1-2)Man(a1-3)Man = target: Man(a1-2)Man(a1-3)Man
Procedure, shortened: as §1

[21] = target: Man(a1-2)Man(a1-3)[Man(a1-2)Man(a1-6)]Man
Procedure, shortened: as §1

[22] = target: Man(a1-2)Man(a1-3)[Man(a1-2)Man(a1-6)]Man(a1-6)[Man(a1-2)Man(a1-2)Man(a1-3)]Man
Procedure, shortened: as §1

[23] = target: Man(a1-2)Man(a1-3)[Man(a1-2)Man(a1-6)]Man(a1-6)[Man(a1-2)Man(a1-2)Man(a1-3)]Man(b1-4)GlcNAc(b1-4)GlcNAc
Procedure, shortened: as §1

[24] = target: Man(a1-2)Man(a1-3)[Man(a1-6)]Man(a1-6)[Man(a1-2)Man(a1-3)]Man(b1-4)GlcNAc(b1-4)GlcNAc
Procedure, shortened: as §1

[25] = target: Man(a1-2)Man(a1-6)[Man(a1-3)]Man(a1-6)[Man(a1-2)Man(a1-2)Man(a1-3)]Man
Procedure, shortened: as §1

[26] = target: Man(a1-2)Man(a1-6)[Man(a1-3)]Man(a1-6)[Man(a1-2)Man(a1-2)Man(a1-3)]Man(b1-4)GlcNAc(b1-4)GlcNAc
Procedure, shortened: as §1

Man(a1-3)[Man(a1-6)]Man = target: Man(a1-3)[Man(a1-6)]Man
Procedure, shortened: as §1

[27] = target: Man(a1-3)[Man(a1-6)]Man(a1-6)[Man(a1-2)Man(a1-3)]Man(b1-4)GlcNAc(b1-4)GlcNAc
Procedure, shortened: as §1

[28] = target: Man(a1-3)[Man(a1-6)]Man(a1-6)[Man(a1-3)]Man
Procedure, shortened: as §1

[29] = target: Man(a1-3)[Man(a1-6)]Man(a1-6)[Man(a1-3)]Man(b1-4)GlcNAc(b1-4)GlcNAc
Procedure, shortened: as §1

[30] = target: Man(a1-3)[Man(a1-6)]Man(b1-4)GlcNAc(b1-4)GlcNAc
Procedure, shortened: as §1

[31] = target: Man(a1-3)[Man(a1-6)]Man(b1-4)GlcNAc(b1-4)[Fuc(a1-6)]GlcNAc
Procedure, shortened: as §1

Man(a1-6)Man = target: Man(a1-6)Man
Procedure, shortened: as §1

Man(b1-4)GlcNAc = target: Man(b1-4)GlcNAc
Procedure, shortened: as §1

MurNAc(b1-4)GlcNAc = target: MurNAc(b1-4)GlcNAc
Procedure, shortened: as §1

B1: HML-Native (Hypnea musciformis), P84871 (protein)
chain: QKFCTLDIAPVCCQIVIGGGMYTAGNACMCEGFVSGVGRCENPKECPCTREAQIPSCCSSRWGLVSVTGKCACDCLGGTVAFPEPCPSPY
[1]
  glycan array binding signal (z-score): 2.23
[2]
  glycan array binding signal (z-score): -0.212
[3]
  glycan array binding signal (z-score): -0.183
[4]
  glycan array binding signal (z-score): -0.243
[5]
  glycan array binding signal (z-score): -0.272
[6]
  glycan array binding signal (z-score): -0.185
[7]
  glycan array binding signal (z-score): -0.344
GlcNAc(b1-3)GalNAc
  glycan array binding signal (z-score): -0.245
GlcNAc(b1-3)Man
  glycan array binding signal (z-score): -0.214
[8]
  glycan array binding signal (z-score): -0.172
[9]
  glycan array binding signal (z-score): -0.249
[10]
  glycan array binding signal (z-score): -0.271
[11]
  glycan array binding signal (z-score): -0.341
GlcNAc(b1-4)GlcNAc
  glycan array binding signal (z-score): -0.222
[12]
  glycan array binding signal (z-score): -0.229
[13]
  glycan array binding signal (z-score): -0.235
[14]
  glycan array binding signal (z-score): -0.197
[15]
  glycan array binding signal (z-score): -0.239
[16]
  glycan array binding signal (z-score): -0.225
GlcNAc(b1-6)GalNAc
  glycan array binding signal (z-score): -0.185
[17]
  glycan array binding signal (z-score): -0.254
Kdn(a2-3)Gal(b1-3)GalNAc
  glycan array binding signal (z-score): -0.219
Kdn(a2-3)Gal(b1-3)GlcNAc
  glycan array binding signal (z-score): -0.289
Kdn(a2-3)Gal(b1-4)Glc
  glycan array binding signal (z-score): -0.311
Kdn(a2-3)Gal(b1-4)GlcNAc
  glycan array binding signal (z-score): -0.192
[18]
  glycan array binding signal (z-score): -0.206
Kdn(a2-6)Gal(b1-4)GlcNAc
  glycan array binding signal (z-score): -0.317
[19]
  glycan array binding signal (z-score): -0.207
[20]
  glycan array binding signal (z-score): -0.005
Man(a1-2)Man(a1-3)Man
  glycan array binding signal (z-score): -0.328
[21]
  glycan array binding signal (z-score): -0.319
[22]
  glycan array binding signal (z-score): -0.298
[23]
  glycan array binding signal (z-score): -0.261
[24]
  glycan array binding signal (z-score): -0.277
[25]
  glycan array binding signal (z-score): -0.247
[26]
  glycan array binding signal (z-score): -0.223
Man(a1-3)[Man(a1-6)]Man
  glycan array binding signal (z-score): -0.241
[27]
  glycan array binding signal (z-score): -0.068
[28]
  glycan array binding signal (z-score): -0.115
[29]
  glycan array binding signal (z-score): -0.105
[30]
  glycan array binding signal (z-score): 0.009
[31]
  glycan array binding signal (z-score): 5.72
Man(a1-6)Man
  glycan array binding signal (z-score): -0.3
Man(b1-4)GlcNAc
  glycan array binding signal (z-score): -0.214
MurNAc(b1-4)GlcNAc
  glycan array binding signal (z-score): -0.318
